Measured values taken from PMC4336329 (PLoS ONE, 2015).
Hit rate of the full screen: of about 310,000 compounds, about 14,000 (4.5%) showed an effect of 50% or more. Effects have a minus sign here. Some of the results follow.

Target: human ether-à-go-go-related gene (hERG) potassium channel (human, UniProt Q12809)
Assay: primary screen, population patch clamp on CHO cells stably expressing hERG
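Further: peak tail current of the secondary pulse compared with the same well before compound.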

human ether-à-go-go-related gene (hERG) potassium channel, sequence (Q12809 whole entry, looked up): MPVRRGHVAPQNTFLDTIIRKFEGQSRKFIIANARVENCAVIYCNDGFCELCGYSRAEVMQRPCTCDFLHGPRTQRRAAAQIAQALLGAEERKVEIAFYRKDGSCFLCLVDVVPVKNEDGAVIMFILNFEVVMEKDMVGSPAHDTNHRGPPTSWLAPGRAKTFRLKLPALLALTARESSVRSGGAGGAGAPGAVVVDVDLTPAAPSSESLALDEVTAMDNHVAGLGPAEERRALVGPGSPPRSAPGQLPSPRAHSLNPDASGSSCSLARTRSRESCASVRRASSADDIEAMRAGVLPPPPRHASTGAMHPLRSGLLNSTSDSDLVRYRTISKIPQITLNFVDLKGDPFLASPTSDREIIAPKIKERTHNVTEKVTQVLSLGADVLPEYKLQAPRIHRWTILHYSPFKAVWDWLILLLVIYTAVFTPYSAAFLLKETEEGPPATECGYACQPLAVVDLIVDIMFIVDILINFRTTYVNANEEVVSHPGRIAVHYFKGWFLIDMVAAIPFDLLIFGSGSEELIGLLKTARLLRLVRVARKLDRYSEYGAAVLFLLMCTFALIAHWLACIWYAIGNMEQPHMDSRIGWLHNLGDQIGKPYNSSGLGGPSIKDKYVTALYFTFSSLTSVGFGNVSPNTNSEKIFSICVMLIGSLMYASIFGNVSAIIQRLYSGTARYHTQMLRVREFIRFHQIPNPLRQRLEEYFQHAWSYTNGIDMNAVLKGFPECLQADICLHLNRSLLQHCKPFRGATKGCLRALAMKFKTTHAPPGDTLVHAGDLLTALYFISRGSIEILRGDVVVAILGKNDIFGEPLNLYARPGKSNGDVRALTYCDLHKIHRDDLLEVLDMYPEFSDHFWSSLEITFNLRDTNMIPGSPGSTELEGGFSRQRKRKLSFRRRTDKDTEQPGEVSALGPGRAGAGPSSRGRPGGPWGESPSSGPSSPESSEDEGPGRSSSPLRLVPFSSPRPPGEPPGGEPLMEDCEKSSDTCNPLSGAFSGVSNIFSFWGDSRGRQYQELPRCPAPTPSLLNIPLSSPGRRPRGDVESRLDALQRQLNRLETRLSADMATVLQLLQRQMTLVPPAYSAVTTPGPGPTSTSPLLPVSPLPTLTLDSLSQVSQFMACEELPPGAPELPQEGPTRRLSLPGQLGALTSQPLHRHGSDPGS

Compound | hERG current change (%, negative = inhibition) at 10uM [%]
CCN(CC(=O)NCc1ccco1)S(=O)(=O)c1ccc(OC)cc1 | 3.31
Cc1nc2c(-c3ccc(Cl)cc3)c(C)[nH]n2c(=O)c1Cc1ccccc1 | 4.24
CN1CCN(C(=O)/C(=C/c2ccc([N+](=O)[O-])cc2)NC(=O)c2ccccc2)CC1 | -81.5
S=C(NCCc1ccccc1)N1CCCCC1 | 14.4
Cc1cccc(NC(=O)CCn2cnnn2)c1 | 15.1
O=C(c1ccccc1)c1cc([N+](=O)[O-])ccc1N1CCOCC1 | -30.7
Cn1c(=O)cc(OCC(=O)NCCc2ccc(Cl)cc2)c2ccccc21 | -28.5
Cc1ccc(C(=O)N(C)CCOc2ccccc2)cc1S(=O)(=O)N1CCOCC1 | -15.6
O=C(CN1CCOCC1)NN=C1CCCCCCCCCCC1 | -8.88
Cc1cc(C)n(-c2ccc(C(=O)OCC(=O)Nc3ccc([N+](=O)[O-])cc3)cc2)n1 | -10.6
O=C(NCc1ccc2c(c1)OCO2)Nc1ccc([N+](=O)[O-])cc1 | 21.1
O=C(Nc1ccc2c(c1)OCO2)c1cc(-c2cccc(O)c2)on1 | -63.1
CCc1c(C)sc(NC(=O)c2ccccc2[N+](=O)[O-])c1C(N)=O | 15.3
O=C(O)c1cccc(-n2nc(-c3ccc(Cl)c([N+](=O)[O-])c3)c3ccccc3c2=O)c1 | 6.68
CSc1ccc(S(=O)(=O)N2CCC(C(=O)NCCCn3ccnc3)CC2)cc1 | -4.91
CC(C)(C)C(=O)OCc1nc(-c2ccc3c(c2)OCCO3)cs1 | 10.8
CN(C)CCCN(C(=O)c1ccco1)c1nc2ccc(Cl)cc2s1.Cl | -73.4
c1ccc(Nc2cccc(Nc3ccccc3)c2)cc1 | 13.5
O=[N+]([O-])c1ccccc1OCCCNCc1ccccc1 | -29.6
CCOC(=O)c1ccc(CC(=O)c2oc3cc(O)ccc3c2C)o1 | 3.59

Compound | hERG current change (%, negative = inhibition) at 10uM [%]
COc1cc(C(=O)NCC2(N(C)C)CCCCC2)ccc1OCc1ccccc1 | -59.7
CC1=C(Sc2ccccn2)C(=O)NC(C)(C)C1 | 19.4
COC(=O)CSc1nc2cc3c(cc2cc1C)OCO3 | 9.15
COc1ccc(C2=NN(C(=O)CSc3cn(C)c4ccccc34)C(c3ccc(OC)cc3)C2)cc1 (centres unmarked) | 8.44
COc1cccc(N2CCN(C(=O)c3ccc(CSc4nc5ccncc5[nH]4)cc3)CC2)c1 | -15.4
CC(C)(C)c1ccc(OCc2ccc(C(=O)N/N=C/c3ccc(O)c(O)c3)cc2)cc1 | 13.2
Cc1cccc(N2CCN(Cc3ccoc3)CC2)c1C | -33.5
O=CN1CCN(C(=O)c2ccccc2Cl)CC1 | 11.8
C#CCOn1c(-n2nc(C)cc2C)nc2ccccc2c1=O | 12.6
O=C1CC(C2CCCO2)C(=O)N1c1cccc(Cl)c1 (centres unmarked) | 17.3
COc1ccc(NCc2nnc(SCC(=O)NCc3ccco3)n2-c2ccccc2OC)cc1 | -4.27
COc1ccc2nc(SCC(N)=O)cc(C)c2c1 | 7.61
O=C(O)C1CCCCC1C(=O)Nc1cccc(C(=O)N2CCCCC2)c1 (centres unmarked) | 7.12
CCOc1ccc(CCNC(=O)c2ccc3ccccc3n2)cc1OCC | -15.7
Cc1cc(Cl)ccc1OCCCC(=O)NCCCn1ccnc1 | -68.1
O=C(NCc1ccco1)c1ccc(Br)c(S(=O)(=O)N2CCCCC2)c1 | -53
C=CCn1c(SCC(C)=O)nc2sc3c(c2c1=O)CCC3 | -2.16
CCN(CC)S(=O)(=O)c1ccc(Cl)c(C(=O)Nc2ccc(Cl)cc2[N+](=O)[O-])c1 | -12.6
O=C(O)c1ccc(COc2ccc([N+](=O)[O-])cc2)o1 | 23.2
Cc1ccc(S(=O)(=O)NC(CC(C)C)C(=O)N2CCCCCCC2)cc1 (centres unmarked) | -6.51

Compound | hERG current change (%, negative = inhibition) at 10uM [%]
CCOc1ccc(Br)cc1S(=O)(=O)NC1CCCC1 | -0.874
CCn1cc(CNC(=O)c2cc(-c3ccccc3OC)nc3ccccc23)c(C)n1 | -19.5
CSc1nc(N2CCN(c3ccccc3)CC2)cc(N2CCN(c3ccccc3)CC2)n1 | 18.3
CN(C)Cc1c(C(=O)N/N=C/C2CC=CCC2)nnn1-c1nonc1N (centres unmarked) | -20.6
COC(=O)C1CCN(C(=O)C23CCC(C)(C(=O)O2)C3(C)C)CC1 (centres unmarked) | 10.7
CCN1CCN(C(=O)CS(=O)(=O)Cc2nc(-c3ccc(C)cc3)oc2C)CC1 | 3.27
CC(OC(=O)CN1C(=O)NC2(CCCC2)C1=O)C(=O)c1ccccc1 (centres unmarked) | 2.22
CCSc1ccc2nnc(-c3cccc(F)c3)n2n1 | -33.6
CSc1ccc(S(=O)(=O)N2CCC(C(=O)N3CCOCC3)CC2)cc1 | 2.57
O=c1oc(-c2ccc(Br)cc2)nc2ccccc12 | 17.8
CCOC(=O)CSc1nnc2n(C3CCCCC3)c(=O)c3c4c(sc3n12)CCCC4 | -3.49
O/N=C1\CC(O)Cc2nonc21 (centres unmarked) | 16.5
CN1CCN(C(=O)CCC(=O)O)CC1 | 1.33
CN(C)C1=NCCN1CCc1cccc(F)c1 | -8.41
Cc1cnc(NC(=O)Nc2ccc(Cl)cc2)s1 | 6.35
COc1ccc(OC)c(NC(=S)NN2CCN(C)CC2)c1 | 2.3
CSc1nc(S(=O)(=O)c2ccccc2)c(Cl)s1 | 15.8
CC(=O)Nc1ccc(NC(=O)C(C)OC(=O)CCC2CCCCC2)cc1 (centres unmarked) | -0.461
CCOc1ccc(OCCC(=O)OCC(=O)c2c(N)n(C)c(=O)n(C)c2=O)cc1 | -23
